# Test results published in PubChem BioAssay AID624418 (National Center for Advancing Translational Sciences (NCATS), 2012).
# The campaign covered roughly 410,000 compounds. About 530 (0.13%) were called active. Inconclusive means that the source gave no clear call. Such entries were picked first, then a sample of the others. The call rests on the fitted dose curve; in most records, active means well fitted inhibition curve with a large enough effect; inconclusive means small, poorly fitted or top-dose-only effect, or another doubt; inactive means no such curve, though single readings can be large or run the other way. Potencies beside an inconclusive call are fits to weak or partial responses and may not hold up.
# Assay: qHTS of GLP-1 Receptor Inverse Agonists: Cytotox Screen
# Conditions: HEK293 cAMP-luciferase reporter cells, luminescence, 24 h; series mostly up to 38.3 µM
# Procedure, shortened: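 Luminescence readout: signal drop marks cytotoxicity. Plated cells grew 12 h at 37 °C, 5% CO2, received 23 nL compound for 24 h, then got luciferase reagent, read after 12 min at RT.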
# Potency means the concentration at half of the fitted maximal effect.
row,SMILES,Potency
1,CC1Cc2cc(/C=C3/SC(=S)NC3=O)ccc2O1 (centres undefined),active: 10 µM
2,CC(Oc1ccc(Br)cc1)C(=O)Nc1ncn[nH]1 (centres undefined),inactive
3,CCC(C)c1ccc(NC(=S)NCc2ccccc2OC)cc1 (centres undefined),"inconclusive: 12.6 µM [inhibitor, single point]"
4,Cc1cc(NC(=S)Nc2ccc(C)c(Cl)c2)n[nH]1,"inconclusive: 14.1 µM [inhibitor, single point]"
5,O=C(NC1CCCCC1)C(c1cccnc1)N(C(=O)c1csnn1)c1ccc(F)cc1 (centres undefined),inactive
6,COc1cccc(N2CCN(C(=O)c3cn(Cc4ccccc4)nc3-c3cccnc3)CC2)c1,"inconclusive: 1 µM [inhibitor, full curve, poor fit]"
7,COC(=O)c1[nH]c2ccc(Br)cc2c1NC(=O)CN1CCN(C2CCCCC2)CC1,"inconclusive: 11.2 µM [inhibitor, partial curve, poor fit]"
8,CSc1nc(Sc2ccc(Cl)cc2)c2ccccc2n1,inactive
9,C=CCN(C/C(=N\O)c1sc(C(=O)OCC)nc1C)c1cccc(Br)c1,"inconclusive: 1 µM [inhibitor, full curve]"
10,Cc1ccc(Cl)cc1NC(C#N)c1ccccc1 (centres undefined),"inconclusive: 22.4 µM [inhibitor, single point]"
11,CC(C)c1ccc(NC(=O)C(c2ccccc2)N(C)C(=O)CCc2c[nH]c3ccccc23)cc1 (centres undefined),inactive
12,O=C(C1CC1)N1CCc2cc(Br)cc(S(=O)(=O)N3CCN(c4ccccn4)CC3)c21,inactive
13,COc1cccc(NC(=O)n2nc(N)cc2-c2ccc(Cl)cc2)c1,"inconclusive: 3.55 µM [inhibitor, partial curve, poor fit]"
14,COC(=O)c1ccccc1N=Nc1c(N)[nH][nH]c1=O,"inconclusive: 10 µM [inhibitor, partial curve]"
15,Brc1ccccc1/C=N/Nc1ccc2ccccc2n1,"inconclusive: 28.2 µM [inhibitor, single point]"
16,CCc1ccc(NC(=O)c2ccc(F)c(S(=O)(=O)NCc3ccc(Cl)c(Cl)c3)c2)cc1,inactive
17,Cc1ccc(/C(=N/Nc2ncnc3ccccc23)C(=O)O)cc1,"inconclusive: 12.6 µM [inhibitor, single point]"
18,CCN(CC)S(=O)(=O)c1ccc2c(c1)N(CC(=O)N1CCN(c3cccc(OC)c3)CC1)C(=O)CO2,inactive
19,CCOc1ccc2nc(NC(=S)NCc3ccccc3)sc2c1,"inconclusive: 8.91 µM [inhibitor, partial curve, poor fit]"
20,CCCCNc1nc(=S)n(-c2ccccc2)c(C)c1C(C)=O,"inconclusive: 28.2 µM [inhibitor, single point]"
21,CC(=O)NCCCNc1ccc([N+](=O)[O-])cc1,"inconclusive: 2.24 µM [inhibitor, partial curve, poor fit]"
22,CC1CCCC(C)N1C(=O)Cn1cc(/C=C2/C(=O)Nc3ccccc32)c2ccccc21 (centres undefined),"inconclusive: 10 µM [inhibitor, partial curve]"

row,SMILES,Potency
1,CC1CC(C)CN(CCCn2c(=S)[nH]c3ccccc3c2=O)C1 (centres undefined),"inconclusive: 31.6 µM [inhibitor, single point]"
2,CCOc1ccc(N2Nc3n[nH]c(N)c3N2)cc1,"inconclusive: 2.51 µM [inhibitor, partial curve, poor fit]"
3,CCN1CCN(Cc2ccc(NC(=O)Nc3ccc(SC)cc3)cc2)CC1,"inconclusive: 22.4 µM [inhibitor, single point]"
4,COc1cccc(N2CCc3c(C)nc4ccc(Cl)cc4c32)c1,"inconclusive: 14.1 µM [inhibitor, single point]"
5,COc1ccccc1-c1ccc(NC2CCCCC2)nn1,"inconclusive: 3.55 µM [inhibitor, full curve, poor fit]"
6,COC(=O)c1ccc(NC(=O)CC2Nc3cc(C)c(C)cc3NC2=O)cc1 (centres undefined),"inconclusive: 31.6 µM [inhibitor, single point]"
7,O=C1C(Cl)=C(Nc2ccc3cn[nH]c3c2)C(=O)c2ccccc21,"inconclusive: 5.01 µM [inhibitor, full curve, poor fit]"
8,Cc1nnc(N/N=C/c2ccccc2F)n1N,inactive
9,O=C(NCCc1ccc(Cl)cc1)C1=CC=CN2CCS(=O)(=O)N=C12,inactive
10,CC(=O)N1CCN(Cc2nc3cc(NC(=O)c4cccc(Br)c4)ccc3n2C)CC1,"inconclusive: 2.51 µM [inhibitor, partial curve, poor fit]"
11,O=C(Nc1ccccc1)N(Cc1cccs1)c1ccc(F)cc1,inactive
12,COc1ccc(CC(N)c2csc(NC(=O)Nc3ccc(C(C)C)cc3)n2)cc1 (centres undefined),"inconclusive: 15.8 µM [inhibitor, single point]"
13,CCOC(=O)c1c(NC(=O)CSc2cn(CCNC(=O)c3ccc(OC)c(OC)c3)c3ccccc23)sc2c1CCCC2,inactive
14,CN(C(=O)COC(=O)c1c2c(nc3ccccc13)/C(=C/c1cccc([N+](=O)[O-])c1)CCC2)C1CCS(=O)(=O)C1 (centres undefined),inactive
15,COc1cccc(-c2cc(C(=O)Nc3cc(OC)c(OC)c(OC)c3)no2)c1,"inconclusive: 6.31 µM [inhibitor, partial curve, poor fit]"
16,C[C@@H]1NC(=O)[C@H](CCCN=C(N)N)NC(=O)c2cc([N+](=O)[O-])cc(I)c2NCCC[C@@H](C(N)=O)NC1=O,"inconclusive: 0.501 µM [inhibitor, full curve, poor fit]"
17,C=CCNC(=O)c1ccc(-c2ccc([N+](=O)[O-])cc2)o1,inactive
18,Cc1cc(OC(F)F)ccc1NC(=S)NCCc1ccccc1,"inconclusive: 28.2 µM [inhibitor, single point]"
19,O=C(COC(=O)c1cc(=O)[nH]c2ccccc12)Nc1ccc(Cl)cn1,inactive
20,COc1cccc(-n2c(SCC(N)=O)nnc2-c2ccco2)c1,inactive
21,CN(Cc1ccccc1)C(=O)COC(=O)c1cc(-c2ccc(Cl)s2)nc2ccccc12,inactive
22,CC(C)CC(C(=O)NCC1CCCO1)N(C(=O)Cn1nnc(-c2ccc(F)cc2)n1)c1ccccc1F (centres undefined),"inconclusive: 5.62 µM [inhibitor, full curve]"
